Out of some 48,000 compounds screened, about 1,200 (2.5%) were called active. Roughly 2% stayed inconclusive and do not appear here.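 Rule for the calls: active = activation of at least 60% and not above a set upper limit (about 1 call in 100 departs from these limits); inconclusive = activation of 40% to 60%, or above that upper limit; inactive = activation under 40%.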 The list shows a part of the results.

UniProt O75388, sequence (O75388 whole entry, looked up): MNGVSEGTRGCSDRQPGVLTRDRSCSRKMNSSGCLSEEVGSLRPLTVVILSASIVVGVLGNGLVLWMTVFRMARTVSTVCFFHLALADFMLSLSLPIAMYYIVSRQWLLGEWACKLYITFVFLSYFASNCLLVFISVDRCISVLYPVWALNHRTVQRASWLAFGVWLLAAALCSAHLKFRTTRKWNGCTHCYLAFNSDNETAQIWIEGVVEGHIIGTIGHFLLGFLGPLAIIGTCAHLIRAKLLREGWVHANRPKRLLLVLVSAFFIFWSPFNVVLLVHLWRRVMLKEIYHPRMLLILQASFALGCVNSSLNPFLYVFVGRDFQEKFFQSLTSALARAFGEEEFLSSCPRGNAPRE

The target in the assay is Probable G-protein coupled receptor 32 (Homo sapiens) (UniProt O75388). Nature of the assay: qHTS for Agonists of Human Resolvin D1 Receptor DRV1. Note: 0% is about no effect. Particulars: CHO-K1 GPR32 beta-arrestin PathHunter luminescence, 90 min; at 76.9 µM; stronger effect = higher value; zero percent set by DMSO-only wells. A digest of the protocol:
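CHO-K1 cells stably expressing ProLink-tagged GPR32 and Enzyme Activator-tagged beta-arrestin were seeded at 2,500 cells/well overnight, exposed to compounds for 90 min at 37 °C, then read by beta-Gal complementation chemiluminescence after 1 h detection reagent.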
For orientation: In qHTS, concentration-response curves come from the screen itself.
For `COC(=O)c1c(-c2ccc(Cl)cc2)noc1N1CCN(c2cc(C)ccc2C)CC1`, the activation is inactive: 0.0072%.

As for `COc1cccc(NC(=O)C2CCCN(S(=O)(=O)c3cn(C(C)C)cn3)C2)c1` (stereo unspecified), the activation was inactive: 0.451%.

On to `CCOc1ccc(CCNC(=O)c2cc3cccc4c3n2CCS4)cc1`, for which the activation is inactive: -11.1%.

Turning to `Cc1ccc(NC(=O)/C(C#N)=C/c2ccc(-c3ccc(Cl)c(C(=O)O)c3)o2)cc1C`, the activation is inactive: -2.85%.

`CCOc1cccc(NC(=O)C2CC(=O)N(CC)C(=Nc3ccc(F)cc3)S2)c1` (stereo unspecified): the activation was active: 80.5%.

`O=C1CS(=O)(=O)C2(C(=O)N(Cc3ccccc3Cl)c3ccccc32)N1c1ccc(F)cc1` (stereo unspecified): the activation was inactive: -6.4%.

In the case of `COc1ccc(Cn2c(C(=O)O)c(CNCCc3ccco3)c3ccc(OC)cc32)cc1`, the activation is inactive: 0.931%.

On to `CC(C)(C)c1ccc(/C=C/C(=O)Nc2ccc(S(N)(=O)=O)cc2)cc1`, for which the activation is active: 94.2%.

Take `CCCNC(=O)Cn1c(=O)n(CC2CCC(C(=O)NC)CC2)c(=O)c2sccc21` (stereo unspecified): the activation was inactive: 5.4%.

For `CCN(CC)S(=O)(=O)c1ccc2c(c1)N(CC(=O)Nc1ccccc1F)C(=O)C1CCCN21` (stereo unspecified), the activation was inactive: -35.8%.

As for `CCCC(=O)N(c1ccc2oc(C)c(C(C)=O)c2c1)S(=O)(=O)c1ccc(CC)cc1`, the activation is inactive: 3.43%.

For `NCCNCCNCCNCCN`, the activation was inactive: 13.2%.

Consider `COc1ccc(N2CCN(c3ncnc4c3cnn4C)CC2)cc1`, for which the activation is inactive: 10.4%.

Regarding `Cc1cccc(C(=O)Nc2ccc(S(=O)(=O)N3CCC(c4nc5ccccc5s4)CC3)cc2)c1`, the activation was inactive: 3.97%.

Regarding `CCC(C)(C)NC(=O)C1CCN(S(=O)(=O)c2ccc3c(c2)CCCN3C(C)=O)CC1`, the activation was inactive: -6.07%.

In the case of `C=Cc1ccc(Cn2c(C(=O)O)c(CNCc3ccc(F)cc3)c3ccc(C)cc32)cc1`, the activation is active: 90.9%.

As for `Cc1cc(C)c(NC(=O)CSc2ncc3c(n2)-c2cc(Cl)ccc2N(C)S3(=O)=O)c(C)c1`, the activation is inactive: -7.42%.

Consider `COCCCNC(=O)c1cc2cc(S(=O)(=O)N3CCCCC3)ccc2n1C`, for which the activation was inactive: -3.36%.

Regarding `COc1ccc(C2c3cc(OC)c(OC)cc3CC(=O)N2c2ccc(C)cc2)cc1` (stereo unspecified), the activation was inactive: -5.93%.

With `CCCC(=O)Nc1nnc(S(=O)(=O)N(C)Cc2ccc(Cl)cc2)s1`, the activation is inactive: -10.6%.

`Cc1cccc(Cn2c(=O)n3nc(-c4ccccc4)nc3c3ccccc32)c1`: the activation is inactive: -7.65%.

Consider `CC(C)c1ccc(S(=O)(=O)c2nnn3c2nc(N2CCCC2)c2sccc23)cc1`, for which the activation was inactive: 0.41%.

For the compound `CCC(C)c1ccc2oc(-c3ccc(NC(=O)c4cc5ccccc5o4)cc3)nc2c1` (stereo unspecified), the activation was inactive: -0.177%.

As to `COc1ccccc1Nc1nc(-c2ccccc2F)nc2ccccc12`, the activation is inactive: -17.1%.

Consider `Cc1cccc(-c2nn3c(=O)cc(CN4CCN(C(=O)/C=C/c5ccccc5)CC4)nc3s2)c1`, for which the activation is inactive: -1.7%.

Consider `Cn1c(=O)[nH]c2cc(-c3noc(-c4ccc(Br)cc4)n3)ccc21`, for which the activation is inactive: -9.22%.

`COc1cc2c(C(=O)Nc3cc(OC)c(OC)c(OC)c3)cn(C)c(=O)c2cc1OC`: the activation is inactive: 14.9%.

For the compound `O=C(CC1N=C2c3ccccc3N=C(SCc3ccc(F)cc3)N2C1=O)NCc1ccc2c(c1)OCO2` (stereo unspecified), the activation is inactive: -10.8%.

Regarding `O=C(NCCN1CCN(c2cccc(Cl)c2)CC1)Nc1ccccc1`, the activation is inactive: 39.7%.

Regarding `CCc1ccc(NC(=O)c2ccc(-c3ccccc3)s2)cc1`, the activation is inactive: -4.22%.

Consider `Cc1ccc(NC(=O)CSc2nnc3ccc4ccccc4n23)cc1`, for which the activation is inactive: -5.11%.

On to `Cc1cccc(C(=O)NCC(c2ccco2)S(=O)(=O)c2cccs2)c1` (stereo unspecified), for which the activation is inactive: -4.25%.

On to `CCOC(=O)C1CCN(c2ncnc3c2nc2n3CCCCC2)CC1`, for which the activation was inactive: 33.1%.

Consider `CCc1ccc(NC(=O)c2cnn(-c3ccccc3)c2-n2cccc2)cc1`, for which the activation was inactive: 15%.

Take `CCC(Oc1ccccc1)C(=O)Nc1nnc(S(=O)(=O)N(CC)CC)s1` (stereo unspecified): the activation is inactive: -5.55%.

For the compound `CCc1cnc2c(c1SCC(=O)NCc1ccccc1Cl)c(=O)n(C)c(=O)n2C`, the activation is inactive: -4.87%.

On to `Cc1cccc(NC(=O)c2ccc(-c3ccccc3)s2)c1`, for which the activation is inactive: -9.35%.

On to `COc1ccc(OC)c(C(C)NC(=O)Cn2c(=O)cc(C)c3c(C)nn(-c4ccc(C)cc4)c32)c1` (stereo unspecified), for which the activation was inactive: -20.5%.

For the compound `Nc1c(-c2nc(-c3cccs3)no2)nnn1-c1cccc(Cl)c1`, the activation was inactive: 5.11%.

Turning to `CCCCC(=O)Nc1ccc2nc(SCC(=O)N3CCCC3)sc2c1`, the activation is inactive: -15.5%.

In the case of `Cc1ccc(C)c(N2CCN(Cc3csc(C)c3C)CC2)c1`, the activation was inactive: 18.4%.

Turning to `COc1ccccc1-c1cc(C(=O)N2CCCCC2C)no1` (stereo unspecified), the activation was inactive: -18.7%.

`CCc1ccc(Nc2ncnc3c2cnn3-c2cc(Cl)ccc2C)cc1`: the activation is inactive: 34.7%.

As for `CCOc1ccccc1CC1C(=O)Nc2ccc(Br)cc21` (stereo unspecified), the activation was active: 73%.

As for `COc1cccc(CNC(=O)C(NS(=O)(=O)c2ccc3c(c2)CCN3C(C)=O)C(C)C)c1` (stereo unspecified), the activation is inactive: 6.36%.

As to `Cc1cccc(-c2nc(Cn3c(=O)cc(-c4ccccc4)c4c(C)nn(C)c43)c(C)o2)c1`, the activation is inactive: -2.15%.

As to `CCn1cc(C(=O)OCC(=O)Nc2ccc(F)cc2F)c(=O)c2ccc(C)nc21`, the activation was inactive: -5.31%.

Consider `COC(=O)c1ccc(Cn2c(=O)cc(C(F)(F)F)c3c(C)nn(C)c32)cc1`, for which the activation is inactive: 13.1%.

Take `CCCn1c2ccccc2c2cnn(CC(=O)NCCc3ccccc3)c(=O)c21`: the activation was inactive: 44.2%.

Consider `O=C(Cn1c2ncccc2c(=O)n1-c1ccccc1)Nc1ccc(F)c(F)c1`, for which the activation was inactive: -8.31%.

For `O=C(NCc1ccc(Cl)cc1)C1CCCN(c2nc3ccccc3n3cccc23)C1` (stereo unspecified), the activation was inactive: -36.4%.

As to `CCN(c1ccc(OC)cc1)S(=O)(=O)c1ccc2[nH]c(=O)ccc2c1`, the activation was inactive: -10.1%.

Consider `CCOc1ccc(S(=O)(=O)N(CC(=O)NCCSc2ccccc2)c2ccccc2)cc1`, for which the activation was inactive: 3.5%.

Turning to `Cc1ccccc1Cn1c(=O)n(CCc2ccccc2)c(=O)c2ccccc21`, the activation is inactive: 6.72%.

As to `Cc1cc(N2CCCCC2)nc2ccc(NC(=O)/C=C/c3ccccc3Cl)cc12`, the activation was inactive: -22.8%.

Turning to `Cn1nc(C(=O)NCc2ccc(Cl)cc2)c2c1-c1ccccc1SC2`, the activation was inactive: -7.1%.

The values are drawn from PubChem BioAssay AID1346428 (National Center for Advancing Translational Sciences (NCATS), 2018).
